# In the BET-seq Pho4 binding data (Le et al. 2018):
# The list shows a part of the results. Values were computed here from the reads of four pooled replicates and scatter widely.
# Target: T1, Pho4 (S. cerevisiae) (UniProt P07270)
# T1 sequence: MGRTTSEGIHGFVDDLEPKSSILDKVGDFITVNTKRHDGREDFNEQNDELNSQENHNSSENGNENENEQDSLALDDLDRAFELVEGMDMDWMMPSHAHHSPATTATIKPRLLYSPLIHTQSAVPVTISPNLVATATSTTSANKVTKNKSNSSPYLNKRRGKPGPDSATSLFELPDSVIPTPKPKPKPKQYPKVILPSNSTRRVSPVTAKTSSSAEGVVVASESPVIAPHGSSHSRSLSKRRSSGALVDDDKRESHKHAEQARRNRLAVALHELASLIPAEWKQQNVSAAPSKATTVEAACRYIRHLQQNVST
# Assay: relative binding free energy (BET-seq); higher = weaker binding
# Details: reference: library average
row,Sequence,relative binding free energy [kcal/mol]
1,ATTGCCACGTGGTGTG,-0.21
2,CTGTGCACGTGGGGAG,-0.12
3,TGGGCCACGTGTGTTG,-0.07
4,TGGGTCACGTGACGAA,0.09
5,GATTTCACGTGAAGGG,0.45
6,ACAGGCACGTGTTAGT,-0.13
7,TTCGTCACGTGGGGGA,-0.05
8,CGGTTCACGTGGTTCA,0.19
9,TTATGCACGTGTTCTG,-0.11
10,TTGTACACGTGAAGGC,0.33
11,TTGTACACGTGATTTC,0.17
12,TAGGACACGTGCCGGG,-0.06
13,AACGTCACGTGATGTT,0.16
14,TCAGACACGTGATGAG,0.3
15,GTTCTCACGTGAAGGT,0.42
16,AGGAACACGTGGGGGT,-0.05
17,TGGAACACGTGAGTGG,0.11
18,TTAGCCACGTGGTGGG,-0.15
19,GGCTGCACGTGGGTGC,-0.12
20,TACATCACGTGTTTAT,0.1
21,ATTGGCACGTGCAGGT,-0.11
22,AGTTGCACGTGATGGA,0.14
23,TAGGACACGTGAAGAG,0.4

row,Sequence,relative binding free energy [kcal/mol]
1,GATTGCACGTGTTCAG,0.12
2,TGGGACACGTGGAACG,0.02
3,GTGCACACGTGGTGGC,-0.09
4,GATGACACGTGTGGGA,0.19
5,GTCTACACGTGATTTT,0.26
6,CCGTGCACGTGTAGGG,-0.16
7,ATTTTCACGTGCTATT,0.11
8,GGGTTCACGTGCAATA,0.53
9,AAGATCACGTGTGGTA,0.14
10,ATATACACGTGGAATT,0.2
11,TAGGGCACGTGGCTAG,-0.16
12,GTGGGCACGTGATCAG,-0.05
13,GGGCCCACGTGTATGG,-0.03
14,GGGAGCACGTGGGGGG,-0.19
15,GATTTCACGTGACGTT,0.45
16,TGTTCCACGTGGCTGT,0
17,TGTTTCACGTGTCAAA,0.15
18,TTCAGCACGTGTGGGA,-0.19
19,TTAAACACGTGTACTG,0.12
20,GGTTGCACGTGACTGT,0.04
21,ATAGGCACGTGATAAT,-0.04
22,TTGGACACGTGCATGG,-0.11
23,TTGAGCACGTGTCGTT,0.08

row,Sequence,relative binding free energy [kcal/mol]
1,AATGTCACGTGCGGTG,0.03
2,GGTGTCACGTGTTACT,0.16
3,AAGGGCACGTGCGCGT,-0.39
4,GGTTTCACGTGTCAAT,0.42
5,GGGATCACGTGCGTGG,0.15
6,GTTGACACGTGATTAG,0.04
7,GGATGCACGTGTTCGT,0.08
8,GTTTTCACGTGTTACG,0.28
9,GATATCACGTGGGAGC,0.2
10,ATGGACACGTGTGCTG,-0.08
11,AGGCGCACGTGTAGGC,-0.09
12,TTTTGCACGTGCGTTG,-0.13
13,AATGCCACGTGGTTGG,-0.16
14,GAATGCACGTGTTGTG,0.12
15,GGCGACACGTGGGTTA,-0.05
16,TAGAGCACGTGTGGAA,-0.14
17,ATTGTCACGTGGTGCA,0.01
18,GTGAACACGTGGATAG,0.01
19,CAGTTCACGTGTGTGT,0.23
20,TATATCACGTGGAGGT,0.14
21,AGGTCCACGTGCTGTG,-0.01
22,CGTGTCACGTGGCAGT,0.05
23,TATGGCACGTGAGAAT,0.06

row,Sequence,relative binding free energy [kcal/mol]
1,CTTTGCACGTGGGTAG,-0.2
2,GGTGGCACGTGGCGTG,-0.16
3,TTAGGCACGTGAGTGG,0.09
4,TTCACCACGTGGTGGG,-0.06
5,TCGTACACGTGGTGGA,-0.05
6,CAGCACACGTGTGGGT,0.22
7,GTTCACACGTGGGATG,0.15
8,GAAGACACGTGAGGGG,0.36
9,ATGGTCACGTGTGGAG,0.2
10,AAGTTCACGTGAGTGG,0.45
11,ATATACACGTGGGAGA,0.02
12,TGTCGCACGTGTTAGA,0
13,TCGGACACGTGTTATT,0.08
14,TGTCTCACGTGTGGGC,0.15
15,ACAGACACGTGTGTTG,0
16,TTAGACACGTGATCGG,0.07
17,TGCTGCACGTGAGTAG,0.29
18,GTGTTCACGTGTTTCG,0.31
19,CGTAACACGTGTTGGT,0.01
20,GAAGGCACGTGATTCG,0.17
21,TCTTCCACGTGGGGGG,-0.16
22,TCTTGCACGTGGTTTT,0.01
23,TGTCGCACGTGGGTAT,-0.19

row,Sequence,relative binding free energy [kcal/mol]
1,TGAATCACGTGGGGTC,0.03
2,CTGGTCACGTGGAACG,0.39
3,GGGGTCACGTGCGCGA,0
4,GTTTGCACGTGTCTAT,-0.07
5,CACTTCACGTGGGTTG,0.06
6,TGTCGCACGTGGTGGA,-0.17
7,TACGGCACGTGTAATG,0.11
8,ATGATCACGTGTGGTA,0.05
9,ATACTCACGTGATTGT,0.27
10,TGGGCCACGTGCGCGT,-0.26
11,GTGAGCACGTGAGGCA,0.16
12,AACGTCACGTGGGCGG,-0.18
13,TTGGTCACGTGTGTTG,0.13
14,TTTGACACGTGTCGTA,0.02
15,GGTAGCACGTGTTGCA,-0.13
16,TAAATCACGTGTGTAC,0.31
17,CCCGTCACGTGGTGTG,-0.01
18,ATTATCACGTGGTTGC,0.21
19,ATGATCACGTGAAGGA,0.39
20,GATTGCACGTGGATAG,0.04
21,GGTTTCACGTGCGGAG,0.32
22,TGTTTCACGTGCCGTT,0.24
23,CGACGCACGTGGTTGG,-0.16
